Assay results taken from PMC6208348 (2018).

Experiments:
Experiment in all cases: FP
EGFR-pTyr954 = target: EGFR-pTyr954
VCP-pTyr805-tail7 = target: VCP-pTyr805-tail7
Shc1-pTyr317 = target: Shc1-pTyr317
Shc1-pTyr239 = target: Shc1-pTyr239
EGFR-pTyr1086 = target: EGFR-pTyr1086

B1: wild-type Src SH2 domain (domain or fragment)
chain: not shown
- Kd (EGFR-pTyr954): 13.3 µM
- Kd (VCP-pTyr805-tail7): 9.77 µM
- Kd (Shc1-pTyr317): 2.81 µM
- Kd (Shc1-pTyr239): 1.07 µM
- Kd (EGFR-pTyr1086): 10.9 µM
